Data taken from PubChem BioAssay AID1508623 (National Center for Advancing Translational Sciences (NCATS), 2021).
Among all 48,000 compounds or so, about 450 (0.94%) were called active. Another 19% or so got no clear call; they are omitted. Calls come from the whole dose curve; as a rule, active = well fitted inhibition curve with a large enough effect; inconclusive = small, poorly fitted or top-dose-only effect; inactive = no such curve, though single readings can be large or run the other way. Some of the results follow.

Assay: Primary qHTS for Identification of Small Molecule Inhibitors of Huntingtin Promoter Activity; note: nearly all actives have a fitted effect of over 50% in size
Conditions: HEK293 HTT promoter firefly luciferase reporter (activity 0% = vehicle and -100% = no light), 24 h; series mostly up to 57.5 µM; activity change, negative = inhibition: at the top concentration
Outline: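 Firefly luciferase signal from promoter-reporter HEK293 cells was scaled between vehicle (0%) and zero RLU (-100%). Compounds were tested at final concentrations of up to 57.5 uM over 24 h at 37 degrees C. PTC124 at 50 uM final served as control inhibitor.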

Activity change, negative = inhibition, inactive:
Cc1ccc(NC(=O)Cn2c(=O)c(C(F)(F)F)nc3ccccc32)c(C)c1 3.76%
CCCCN(CC)CCNC(=O)Cn1c(=O)c2cccn2c2cccnc21 -8.4%
Cc1ccc(Nc2cc(C(=O)NC3CCCC3)c3ccccc3n2)c(C)c1 -6.86%
CN(Cc1ccccc1)C(=O)Cn1ncc2c3ccccc3n(Cc3cccc(Cl)c3)c2c1=O -27%
Cc1ccc(Cl)cc1Nc1sc(C(=O)c2ccccc2)c(N)c1S(=O)(=O)c1ccccc1 5.35%
CCc1cnc2c(c1SCC(=O)NCc1ccccc1)c(=O)n(C)c(=O)n2C -10.7%
Cc1cc(C)c2oc(-c3cccc(NC(=O)c4cc5ccccc5o4)c3)nc2c1 -10.4% [at 11.5 µM]
COc1cc(CCC(=O)NCc2ccc3c(c2)CCN3C(=O)c2cccc(C)c2)cc(OC)c1OC -23.3%
CC(C)n1c(SCC(=O)c2ccc(F)cc2)nc2c(sc3ccccc32)c1=O -24.1%
COc1ccccc1OCCCn1c(C2CC(=O)N(c3ccc(F)cc3)C2)nc2ccccc21 (stereo not given) -26.7%
Cc1cccc2nc(Cn3c(=O)n(-c4ccccc4)c(=O)c4c5c(sc43)CCC5)cc(=O)n12 9.86%
CCOc1ccccc1NC(=O)CSc1nnc(CC)c(CC)n1 -21.6%
CCCCC(CC)CNC(=O)c1ccc(Cn2c(=O)[nH]c3cc(OC)c(OC)cc3c2=O)cc1 (stereo not given) -1.17%
CCN1c2ccccc2-c2nc(SCC(=O)Nc3cc(OC)cc(OC)c3)ncc2S1(=O)=O -15.8%
CCCN(C(=O)c1c(C)oc2ncn(CC(C)C)c(=O)c12)c1ccccc1C -1.41%
CCCOc1ccc(C(=O)Nc2cc(-c3nc4ccccc4[nH]3)ccc2C)cc1 -18.8%
COc1cccc(CN2CCCN(Cc3ccc(F)cc3)S2(=O)=O)c1 -12.6%
Cc1ccccc1OCC(=O)Nc1nnc(SCc2cc(=O)n3cccc(C)c3n2)s1 1.61%
COc1cccc(CNC(=O)c2cc3cc(C)ccc3n2C)c1 -19.1%
Cc1c(NC(=O)C(C)(C)C)cccc1-c1nc2ccccc2s1 23.3%
Cc1ccc(-n2nc(C(=O)N3CCN(c4cc(C)ccc4C)CC3)c3c4ccccc4n(C)c3c2=O)cc1 -7.53%
CCOc1ccccc1NC(=O)Cn1c(=O)n(-c2ccc(Cl)cc2)c(=O)c2oc3ccccc3c21 -8.52%
CCN(CC)c1ccc(NC(=O)Cn2cc3c(n2)CCCC3)c(C)c1 -16%
Cn1c(=O)n(C)c2cc(N3CCCCC3)c(NC(=O)Nc3ccc(Br)cc3)cc21 -19.8%
CCc1ccc(NC(=O)CSc2nc3c([nH]c4ccccc43)c(=O)n2C)cc1 -6.88%
Cc1ccc(-n2c(=O)c3ccc(C(=O)NCc4ccccc4Cl)cc3n(Cc3cccc(F)c3)c2=O)cc1 -16.4%
COc1ccc(N2CCN(C(CNC(=O)c3c(F)cccc3F)c3ccc4c(c3)OCO4)CC2)cc1 (stereo not given) -19.5%
CCOC(=O)c1cc2c(=O)n3ccccc3nc2n(CC2CCCO2)c1=NC(=O)c1ccccc1OCC (stereo not given) -11.4%
CCOc1ccc(-n2cc(-c3ccccc3)c3c(NCc4ccccc4)ncnc32)cc1 -29.7%
COc1ccc(CNC(=O)C2CCN(S(=O)(=O)N3CCC(C)CC3)CC2)c(OC)c1 -23.9%
Cc1ccc(NS(=O)(=O)c2cn(C)c(C)n2)c(Br)c1 -2.04%
COc1cc(CN(C(=O)c2ccc(C)cc2)C2CCS(=O)(=O)C2)cc(OC)c1OC (stereo not given) -9.39%
COc1cccc(NC(=O)C2CC(=O)N(c3ccc(Br)cc3)C2)c1 (stereo not given) -9.15%
COc1ccc(NC(=O)CCn2cnnn2)cc1 -3.37%
N#C/C(=C\c1cccc(F)c1)c1nc(-c2cc3ccccc3oc2=O)cs1 5.62%
Cc1ccc2c(c1)c1c(c(=O)n(Cc3ccccc3)c(=O)n1Cc1cccc(F)c1)n2C -8.3%
Cc1ccc(S(=O)(=O)c2cn(CC(=O)Nc3ccc4c(c3)OCO4)c3ccc(C)cc3c2=O)cc1 -9.84%
COc1ccc(-c2nc3ccccc3o2)cc1NC(=O)c1cc([N+](=O)[O-])ccc1N1CCOCC1 22.5%
CCC1CN(CC(=O)NCc2cccc(Br)c2)c2ccccc2S1 (stereo not given) -29.1%
Cc1c(Nc2ncccc2C(=O)O)cccc1C(F)(F)F 9.2%
CCc1nnc(SCC(=O)Nc2ccc(OC)c(OC)c2)c2cc3occc3n12 8.73%
CCc1ccc(N2CC(C)Cn3c2nc2c3c(=O)n(CC(=O)O)c(=O)n2C)cc1 (stereo not given) 0.195%
COC(=O)Cc1c(C)nc2nc(NCc3ccc(Br)cc3)[nH]n2c1=O -19.9%
O=C(Nc1noc2ccccc12)c1ccc(F)cc1 60%
CCOC(=O)c1ccc(NC(=O)C2(S(=O)(=O)c3ccc(Cl)cc3)CC2)cc1 -1.37%
COc1ccc(CNC(=O)c2cc(=O)c3cc(C)ccc3o2)cc1 -17.9% [at 11.5 µM]
C=Cc1ccc(COc2ccc3oc(-c4ccccc4)c(C(=O)OCC)c3c2)cc1 -2.52%
Cc1cccc(C)c1NS(=O)(=O)c1ccc(NS(=O)(=O)c2ccc3c(c2)OCCO3)cc1 -23%
Cc1ccccc1NC(=O)CCC(=O)N1CC(C)Sc2ccccc21 (stereo not given) -22.8%
COc1cccc(CNC(=O)CSC2=Nc3ccccc3C3=NC(C(C)C)C(=O)N23)c1 (stereo not given) -17%
CCOC(=O)COc1ccc([N+](=O)[O-])cc1-c1ccnc2cc(-c3ccc(C)cc3)nn12 -7.61%
COc1ccc(C(=O)N(c2ccc(OC)cc2)S(=O)(=O)c2ccc3c(c2)n(C)c(=O)n3C)cc1 3.48%
COc1ccccc1C(=O)Nc1cccc(C(=O)OCc2cc(=O)n3nc(C)sc3n2)c1 -5.93%
O=C(c1cc2ccc3cccnc3c2[nH]1)N1CCN(c2ccc(Cl)cc2)CC1 6.56%
Cc1c(Cl)cccc1NC(=O)Cn1nnc2sc3c(c2c1=O)CCCC3 -10.6%
O=C(Nc1cccc(Cl)c1Cl)c1cc(S(=O)(=O)NCCc2ccccc2)ccc1F -25.3%
NC(=O)CSc1ncc2c(n1)-c1ccccc1N(Cc1ccc(Cl)cc1)S2(=O)=O -11.4%
Cc1nn(CC(=O)Nc2cc(F)ccc2F)c(=O)c2cccn12 1.34%
CC(C)c1noc(-c2ccccc2OCC(=O)Nc2ccccc2[N+](=O)[O-])n1 -18.9%
Cc1cc(Nc2ccc(Cl)cc2C)nc(-n2nc(C)cc2C)n1 -20.6%
O=C(NCc1ccc2c(c1)CCN2C(=O)c1ccc(F)cc1)c1ccco1 -17.9%
Cc1c(CNC2CCCCC2)c(C(=O)O)c(C)n1Cc1ccc(F)cc1 -3.77%
CCC(=O)Nc1ccc2nc3c(=O)n(C)c(=O)n(C)c3nc2c1 8.37%
CCOC(=O)[C@H]1O[C@H]1C(=O)N[C@@H](CC(C)C)C(=O)NCCC(C)C -9.62%
CCN(C(=O)c1cc2c(=O)n3cccc(C)c3nc2s1)c1ccc(C)c(C)c1 -4.31%
COc1cccc(CNC(=O)C2(c3cccs3)CCOCC2)c1 -2.71%
CC(C)c1nc2n(n1)C1(CCCCC1)[C@@H]1CCCC[C@@H]1N2 -1.21%
COc1ccc(-c2nc3c4ccccc4n(CC(=O)N4CCN(c5ccc(F)cc5)CC4)c(=O)n3n2)cc1 -2.12%
Cc1cccc(Cn2c(C)c(CNC3CCCCCC3)c(C(=O)O)c2C)c1 -18.2%
COc1c(Cl)cc(C(=O)N(Cc2ccc(C)o2)C2CCS(=O)(=O)C2)cc1Cl (stereo not given) -29.8%
O=C(Cn1c(=O)c2ccccc2n(CC(=O)Nc2ccc(F)cc2)c1=O)NCCc1ccccc1 -20.3%
CCOC(=O)N1CCc2c(sc3c2C(=O)NC(c2cc(OC)c(O)c(OC)c2)N3)C1 (stereo not given) -6.06%
COc1cccc(C(=O)c2cn(CC(=O)NCCc3ccccc3)c3nc(C)ccc3c2=O)c1 -3.26%
CCCN(CCC)CCCNC(=O)Cn1cc2c(n1)-c1c(oc(C(=O)N3CCCC3)c1C)CC2 -8.88%
COc1cccc(NC(=O)Cn2c(=O)n(CCc3ccccc3)c(=O)c3c4c(sc32)CN(C(C)=O)CC4)c1 -21.7%
Cc1ccc(C(=O)c2oc3ccccc3c2NC(=O)COc2ccccc2Cl)cc1 -8.51%
CCOC(=O)c1cc2c(=O)n3ccccc3nc2n(CC2CCCO2)c1=NC(=O)c1ccc(OC)cc1OC (stereo not given) -12.5%
CCOc1ccc(NC(=O)NCc2ccc3c(c2)CCN3C(C)=O)cc1 -1.16%
Cc1cc(C)n(-c2nc3ccccc3nc2N2CCN(c3cccc(C)c3C)CC2)n1 7.52%
COc1ccc(Cn2c(SCc3ccc(C(=O)NCCc4ccccc4)cc3)nc3cccnc32)cc1 -5.23%
Cn1c(=O)n(C/C=C/c2ccccc2)c(=O)c2c1nc1n2CCN1c1ccc(Cl)cc1 3.76%
CCN(CC)c1nn2c(=O)c(C(=O)NCc3cccc(C)c3)cnc2s1 -3.6%
CCn1cc(S(=O)(=O)c2ccc(C)cc2)c(=O)c2cc(F)c(N3CCCCCC3)cc21 9.72%
CCOC(=O)c1[nH]c(C)c(CCC(=O)NCc2ccccc2C)c1C -13.9%
Cc1ccc(NC(=O)CSc2ncnc3c2sc2ccccc23)cc1C -12.3%
Cc1nn(C(=O)c2cccc(F)c2)c(C)c1S(=O)(=O)N1CCCCCC1 -11.4%
CCC(C)NC(=O)Cn1c(=O)n(Cc2ccc(C(=O)NCc3ccccc3OC)cc2)c(=O)c2ccccc21 (stereo not given) -16.4%
Cc1ccc(C)c(NC(=O)CSc2nc(=O)n(Cc3ccccn3)c3c2CCC3)c1 -4.07%
Cc1cccc(N2CCN(S(=O)(=O)c3ccc(F)c(C(=O)Nc4ccc(C(C)C)cc4)c3)CC2)c1C -26.4%
COc1ccc(OC)c(Nc2ncnc3c2cnn3-c2ccc(C)cc2)c1 -20.5%
Cc1cc(C)cc(NS(=O)(=O)c2ccc3[nH]cc(C(=O)N4CCCCCC4)c(=O)c3c2)c1 -1.38%
CCOc1ccc(CC(=O)NC2CC(=O)N(c3ccc(C)c(C)c3)C2)cc1 (stereo not given) -22.7%
C#CC(C)(CC)NC(=O)c1cc2c(n(-c3ccc(Cl)cc3)c1=O)CC(C)(C)CC2=O (stereo not given) -6.94%
COCCn1c(C)cc(O)c(C(c2ccc(C)cc2)N2CCCCC2)c1=O (stereo not given) -12%
CC(=O)N1CCc2cc(Br)cc(S(=O)(=O)N3CCN(c4cc(C)ccc4C)CC3)c21 0.243%
